# Laboratory results as given in publication PMC6919601, “Identification of Plasmodium dipeptidyl aminopeptidase allosteric inhibitors by high throughput screening” (PLoS ONE, 2019).
# Among all 110,000 compounds or so, about 230 (0.21%) showed an effect of 50% or more. This is one part of the list.
# Molecular target: DPAP1 (Plasmodium falciparum, UniProt Q8IIJ9)
# Assay: primary screen, percent inhibition; read by cleavage of a fluorogenic dipeptide substrate; higher = more effect of the substance
# Design: species or system P. falciparum D10 trophozoite lysates; single well
# 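Also: 30 min substrate incubation versus DMSO and 10 µM JCP410 controls.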
# Sequence of DPAP1 (Q8IIJ9 whole entry, looked up): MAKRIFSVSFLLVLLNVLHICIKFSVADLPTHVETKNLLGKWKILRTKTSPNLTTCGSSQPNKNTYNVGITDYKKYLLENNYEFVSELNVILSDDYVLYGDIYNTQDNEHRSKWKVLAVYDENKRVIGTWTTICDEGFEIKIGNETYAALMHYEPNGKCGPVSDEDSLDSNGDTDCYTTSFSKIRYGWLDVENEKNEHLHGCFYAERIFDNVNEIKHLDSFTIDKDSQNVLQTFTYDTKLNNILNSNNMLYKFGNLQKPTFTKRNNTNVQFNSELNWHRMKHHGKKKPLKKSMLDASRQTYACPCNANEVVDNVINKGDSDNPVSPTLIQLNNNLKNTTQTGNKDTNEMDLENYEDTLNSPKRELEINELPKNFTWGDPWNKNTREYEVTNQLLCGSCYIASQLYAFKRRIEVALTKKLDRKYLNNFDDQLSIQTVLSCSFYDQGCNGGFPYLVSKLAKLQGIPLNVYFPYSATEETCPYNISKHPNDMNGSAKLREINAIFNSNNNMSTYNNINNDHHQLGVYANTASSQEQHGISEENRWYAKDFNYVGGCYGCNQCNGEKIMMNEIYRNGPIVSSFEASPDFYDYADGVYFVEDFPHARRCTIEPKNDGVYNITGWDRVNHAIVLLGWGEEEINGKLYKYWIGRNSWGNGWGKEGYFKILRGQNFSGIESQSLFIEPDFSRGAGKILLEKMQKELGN
row,Compound,% Inhibition @ 10 uM [%]
1,COC(=O)c1ccccc1NS(=O)(=O)c1ccc(Cl)cc1,-0.546
2,CC(=O)N[C@H]1[C@H](OCCN2C(=O)c3ccccc3C2=O)O[C@H](CO)[C@@H](O)[C@@H]1O,-1.74
3,COc1ccc(OC)c(NC(=O)c2cccc(NC(=O)c3ccccc3C(=O)O)c2)c1,-0.519
4,CC(C)Cn1cc(C(=O)N2CCC(Cc3ccccc3)CC2)c2c3ccccc3n(C)c2c1=O,-6.45
5,COc1ccc(S(=O)(=O)Nc2ccccn2)c(C)c1C,3.36
6,Cc1cc2c(c(=O)o1)C(c1cccc(C(F)(F)F)c1)C(C#N)=C(N)O2 (stereo not shown),2.7
7,O=C(NCc1cccnc1)c1cc2nc(-c3ccccc3)cc(-c3ccccc3)n2n1,-3.33
8,O=C(CSc1nnnn1-c1ccccc1)NC(C(=O)O)(c1ccccc1)c1ccccc1,0.032
9,Cc1nc(C)c(-c2csc(Nc3cccnc3)n2)s1,-1.69
10,Cc1ccc2nc3c(cc(C(=O)NCc4ccccc4)c(=N)n3CCN3CCOCC3)c(=O)n2c1,3.6
11,CCc1ccc(C2=CC(c3cccc(C)c3)n3nnnc3N2)cc1 (stereo not shown),-5.43
12,Cc1cccc(-c2cc(C(=O)N3CCCC3)c3ccccc3n2)c1,1.28
13,O=C(CCc1nnc2n(Cc3ccccc3)c(=O)c3ccccc3n12)NCCc1c[nH]c2ccccc12,-6.07
14,C=CCOc1ccc(/C=C2\Sc3ccccc3C2=O)cc1,-1.37
15,CC(=O)N1CCC(NC2CCCc3ccccc32)CC1 (stereo not shown),3.48
16,CN1CCN(c2nc3c(c(=O)[nH]c(=O)n3C)n2Cc2cccc(Br)c2)CC1,-3.37
17,O=C(c1ccc2c(c1)ncn2C1CCCCC1)N1CCN(Cc2ccccc2)CC1,4.81
18,CN1CCN(c2ncnc3c2cnn3Cc2ccc(Cl)cc2Cl)CC1,2.16
19,CN(C)CCOC1COCc2ccccc21 (stereo not shown),4.22
20,COc1cc2c(cc1OC)C(Cc1cccc(OC)c1OC)C(=O)N(C)CC2 (stereo not shown),-0.773
21,CCCCCC(=O)Nc1ccc(NC(=O)CC)cc1,-2.24
22,O=C(Nc1nonc1NC(=O)c1ccccc1)c1ccccc1,1.54
23,O=C(O)c1cnn2c(C(F)(F)F)cc(-c3cccs3)nc12,3.76
24,COc1cccc(/C=C/c2nc(C#N)c(NCc3ccccc3)o2)c1,0.895
25,O=C(CC1Sc2ccccc2NC1=O)Nc1ccc(C(F)(F)F)cc1 (stereo not shown),-3.93

row,Compound,% Inhibition @ 10 uM [%]
1,O=C(O)CCCn1sc2ccccc2c1=O,3.04
2,Cc1cccc(C)c1-n1c(C)cc(/C=C2\C(=N)N3N=C(S(C)(=O)=O)SC3=NC2=O)c1C,5.1
3,O=C(O)c1ccccc1N1C(=O)c2ccc(Oc3ccc([N+](=O)[O-])cc3)cc2C1=O,-3.16
4,CCN(CN1C(=O)c2ccccc2C1=O)c1ccccc1,1.96
5,COc1cccc(CNCc2c(C(=O)O)n(C)c3ccccc23)c1,1.93
6,CC1=NOC(=O)/C1=C\C=C/c1ccccc1,-5.2
7,CC(=O)c1c(OCc2ccccc2)ccc2c(C)cc(=O)oc12,0.778
8,O=C(c1ccccc1F)N1CCN(c2ccc(F)cc2)CC1,1.43
9,COC(=O)c1c(NC(=O)C(C)Oc2ccc(C)c(C)c2)sc2c1CCCC2 (stereo not shown),-1.1
10,Cc1ccc(C2c3c(oc4ccccc4c3=O)C(=O)N2c2nnc(C(C)C)s2)o1 (stereo not shown),7.65
11,CC1CCN(c2nc3ccc(C(=O)NCCN(C)C4CCCCC4)cc3s2)CC1,-0.637
12,CCN(Cc1ccccc1)C(=O)COc1ccc(Cl)cc1Cl,3.21
13,COc1ccc(CNC(=O)C2(S(=O)(=O)c3ccc(Cl)cc3)CC2)cc1,-4.53
14,CCCC(=O)/N=C(\N)Nc1nc(C)c2cc(C)ccc2n1,0.687
15,COC(=O)c1ccc(Cn2c(=O)cc(-c3ccccc3)c3c(C)nn(C)c32)cc1,-0.441
16,Cc1cccc(CS(=O)(=O)Cc2ccc(C(=O)NCCCN3CCCCCC3)o2)c1,-0.971
17,COc1ccccc1CN1CCN(S(=O)(=O)c2ccc(Cl)cc2)CC1,2.06
18,CC(=O)Nc1ccc(S(=O)(=O)Nc2ccc(C)cc2)cc1,5.03
19,CC(=O)Nc1ccc(NC(=O)C2CCN(C(=O)c3ccc(C(C)(C)C)cc3)CC2)cc1,6.65
20,CCNc1nc(SCC(=O)Nc2ccc(Cl)c(Cl)c2)nc(N2CCOCC2)n1,-5.1
21,CC1CCN(S(=O)(=O)c2ccc(NC(=O)C(C)(C)C)cc2)CC1,-6.17
22,CC1=CC(C)C2COC(c3ccccc3O)C1C2 (stereo not shown),4.35
23,CCCc1ncc(C(=O)c2ccc(OC)cc2)n1C,-3.35
24,O=C(NC(c1ccccc1)c1ccccc1)C1CCN(c2ncccn2)CC1,2.41
25,CCCN1CCN(C(=O)c2sc3nc(C)cc(C)c3c2-n2cccc2)CC1,-1.08

row,Compound,% Inhibition @ 10 uM [%]
1,CN(C)CCC(O)(c1ccccc1)c1cccnc1 (stereo not shown),1.54
2,Cc1ccc(-c2cn3nc(N4CCC(C(=O)N5CCN(C)CC5)CC4)sc3n2)cc1,3.12
3,Cc1nnc2n1NC(c1ccc(Cl)cc1)C(C(=O)NCC1CCCO1)S2 (stereo not shown),-13.6
4,COc1ccc(C(=O)Nc2ccc(Br)c(Cl)c2)cc1,-1.28
5,CCN(CC)C1=N/C(=C\c2ccco2)C(=O)N1c1ccccc1,-2.8
6,C=C(C)CNC(=S)NCc1ccccc1,-3.44
7,O=S1(=O)N=C(N2CCOCC2)c2ccccc21,-0.591
8,CNC(=O)Cn1cc(S(=O)(=O)Cc2cccc(Cl)c2)c2ccccc21,2.25
9,COc1ccccc1N1CCN(C2CC(=O)N(c3cccc(C)c3)C2=O)CC1 (stereo not shown),-6.05
10,Cc1ccc(-c2nnn3c2nc(NC(C)C)c2ccccc23)cc1,-10.4
11,COc1ccccc1-c1oc2ccc(C)cc2c(=O)c1O,0.0539
12,COc1ccc2c(c1)CC/C(=C\c1ccc(OC)c(Cn3nc(C)cc3C)c1)C2=O,8.24
13,COCCCn1c(SCC(=O)NCCC2=CCCCC2)nc2c(sc3ccccc32)c1=O,7.26
14,CCN(Cc1ccccc1)S(=O)(=O)c1ccc(Cl)cc1,3.47
15,CCOCCCNc1ncnc2c1cnn2-c1ccc(C)cc1,1.91
16,CCSc1ccc(-c2cccs2)nn1,-0.256
17,O=C(NC(c1ccccc1)c1ccccc1)c1cccc(-n2cnnn2)c1,-4.56
18,Cc1ccccc1OCC(=O)Nc1nnc(S(=O)(=O)NCc2ccccc2)s1,-1.72
19,CCNC(=O)c1ccc(C2SCC(=O)N2CCc2ccccc2)cc1 (stereo not shown),-1.6
20,CC(=O)N1CN(S(=O)(=O)c2ccc(C)cc2)CC1C (stereo not shown),-5
21,Cc1ccnc(NC(=O)c2cccc(S(=O)(=O)N3CCCCCC3)c2)c1,2.94
22,CC1CC(=O)C2=C(C1)OC(N)=C(C#N)C2c1ccc(F)cc1 (stereo not shown),-3.72
23,CC(C)CCNC(=O)CCS(=O)(=O)c1cccc2nonc12,1.26
24,CC(C)(C)NS(=O)(=O)c1ccc(OCC(=O)Nc2ccc(Br)cc2F)cc1,-1.82
25,Cc1cc(N)n(C2CCS(=O)(=O)C2)n1 (stereo not shown),8.49

row,Compound,% Inhibition @ 10 uM [%]
1,Cc1ccccc1N1C(=O)/C(=C\c2c(C)[nH]c3ccccc23)C(=O)NC1=S,4.15
2,Cn1c(=O)c2c(nc(CN3CCC(C(N)=O)CC3)n2CCCc2ccccc2)n(C)c1=O,-1.65
3,COCC(C)NC(=O)NC1(C(F)(F)F)Oc2cc(Cl)c(Cl)cc2O1 (stereo not shown),6.57
4,Cc1cc2nc(-c3c(O)nc4ccccc4c3O)[nH]c2cc1C,6.86
5,CC1(C)Cc2nc3ccccc3c(N)c2C(O)C1 (stereo not shown),0.266
6,Cc1ccc(/C=C2/SC(=O)N(CC(=O)N3CCOCC3)C2=O)s1,-4.39
7,Cc1ccc(S(=O)(=O)NCCCC(=O)O)cc1,-1.29
8,O=c1c2c3c(sc2nc2c4ccccc4c(NCC4CCCO4)nn12)CCCC3 (stereo not shown),41.2
9,COc1cc(-c2nc3ccccc3s2)cc(Br)c1O,5.72
10,O=C(Cn1ncc2c3ccccc3n(Cc3ccccc3F)c2c1=O)NCC1CCCO1 (stereo not shown),0.137
11,Nc1ccc2nn(-c3cc([N+](=O)[O-])ccc3O)nc2c1,2.13
12,CC(=O)NCCSc1nc(-c2cccs2)cc(-c2ccc(F)cc2)c1C#N,5.65
13,CC1=C(C(=O)OCc2ccc3c(c2)OCO3)C(c2ccc(Cl)cc2Cl)CC(=O)N1 (stereo not shown),5.86
14,COc1ccc(-c2[nH]nc3c2C(c2ccsc2)C(C#N)=C(N)O3)cc1 (stereo not shown),14.3
15,CCO/C(O)=C1/C(C)=Nc2ncnn2C1c1ccc(OC)c(O)c1 (stereo not shown),-1.17
16,Cc1cc(Nc2ccc3c(c2)OCCO3)c2ccc(Cl)cc2n1,-3.49
17,COc1ccc(C(=O)c2cc(C#N)c3c4ccccc4ccn23)cc1OC,-0.413
18,CCOC(=O)N1CCC(N2CCN(C/C=C/c3ccccc3)CC2)CC1,-1.81
19,CC(C)n1c(Oc2ccccc2Cl)nc2c1c(=O)n(C)c(=O)n2C,4.1
20,CCCCc1ccc(NC(=O)c2ccc(OC)c(OC)c2)cc1,-4.68
21,COc1ccc2c(CNCCc3ccc(Cl)cc3)c(C(=O)O)n(Cc3ccccc3C)c2c1,-2.86
22,CCc1ccc(NS(=O)(=O)c2c(C)cc(C)cc2C)cc1,-2.6
23,CCN(CC)CCn1c(NC(=O)C23CC4CC(C2)CC(n2cncn2)(C4)C3)nc2ccccc21,6.68
24,COc1ccc(CN2CCN(c3ccccc3C)CC2)cc1C,1.48
25,OC(COc1ccc2ccccc2c1)CN1CCN(c2ccccc2)CC1 (stereo not shown),1.4
